# Measured values published in PubChem BioAssay AID938 (National Center for Advancing Translational Sciences (NCATS), 2007).
# Values joined by “and” are separate entries in the source; they are usually repeats but may differ in a detail not shown here. Equal entries are not always repeated. The campaign covered roughly 73,000 compounds. About 1,800 (2.5%) were called active. This list was built around the results that the source calls inconclusive (neither active nor inactive); the mix of calls is not that of the screen. Calls come from the whole dose curve; as a rule, active = well fitted activation curve with a large enough effect; inconclusive = small, poorly fitted or top-dose-only effect; inactive = no such curve, though single readings can be large or run the other way. No potency is given beside an inconclusive call; the fits are too rough.
# Assay: qHTS Assay for Agonists of the Thyroid Stimulating Hormone Receptor: Activators of Intracellular cAMP Concentrations in Parental HEK 293; note: nearly all actives have a fitted effect of over 55% in size; for activation: % of control where 0% means no effect
# Settings: parental HEK293 CNG cAMP sensor, membrane potential fluorescence; activation: at 57.1 µM (top of the series) unless noted
# Procedure, shortened: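 Parental HEK 293 cells stably expressing a modified CNG channel (no TSHR) report cAMP rise as membrane depolarization. Membrane potential dye with 100 uM RO 20-1724 was loaded for 60 min at room temperature, then compound added for 30 min; fluorescence read at 590 nm.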
# Potency is the fitted concentration of half-maximal effect; tags give direction and shape of the fitted curve.
Compound,Potency,activation
Cc1cc(NC(=O)C2CCCC2)nc2c1c(=O)oc1ccccc12,"inconclusive [activator, partial curve]",
COc1cc(NC(=O)c2cc(-n3cnnc3)ccc2Cl)cc(OC)c1,,inactive: 6.14%
CCc1nc(SCC(=O)NCc2ccco2)c2c3c(sc2n1)CCCC3,active: 5.01 µM,
CN(Cc1nc(-c2ccncc2)no1)S(=O)(=O)c1ccc(Br)cc1,"inconclusive [activator, full curve, poor fit]",
Clc1ccccc1-c1ccc2ncnc(N3CCNCC3)c2c1,,inactive: 10.5%
CCCn1c(-c2ccc(F)cc2)nc2c(NCCCCN(CC)CC)nc(C)nc21,"inconclusive [activator, partial curve]",
c1csc(Cc2nc3ccccc3[nH]2)c1,"inconclusive [activator, partial curve]",
Cc1cccc(N2CCN(C(=O)C3CCN(c4nnc(-n5cccc5)s4)CC3)CC2C)c1 (stereo not drawn),"inconclusive [activator, single point]",
COc1ccccc1NC(=O)CC1Nc2ccccc2NC1=O (stereo not drawn),"inconclusive [activator, partial curve]",
COc1ccccc1N1CCN(C/C=C/c2ccc(N(C)C)cc2)CC1,,inactive: -40.9%
CC(=O)c1cc2c(cc1NC(=O)CN1CCN(c3ccc(F)cc3)CC1)OCO2,"inconclusive [activator, single point]",
CC(=O)OCC1OC(C#Cc2ccc(C)cc2C)C=CC1OC(C)=O (stereo not drawn),,inactive: 0.557% [at 11.4 µM]
O=C(Nc1ccccc1)C1=C(N2CCOCC2)/C(=C/c2cccnc2)CC1,"inconclusive [activator, single point]",
Cc1cc(C(=O)CSc2nnc(Cc3ccccc3)o2)c(C)n1Cc1ccc2c(c1)OCO2,"inconclusive [activator, partial curve]",
COc1cccc(C(=O)N2CCCc3ccccc32)c1,"inconclusive [activator, single point]",
Cc1cc(C)n(-c2nc3ccccc3n3cnnc23)n1,"inconclusive [activator, single point]",
Cc1ccc(-c2csc(N(CC3CCCO3)C(=O)c3ccco3)n2)cc1 (stereo not drawn),"inconclusive [activator, single point]",
CCCCn1c(CN(C)Cc2ccccc2)nc2c1c(=O)n(C)c(=O)n2C,active: 15.8 µM,
O=C(Nc1c2c(nn1-c1ccc(F)cc1)CS(=O)C2)C12CC3CC(CC(C3)C1)C2 (stereo not drawn),"inconclusive [activator, partial curve]",
Cc1ccc(Nc2cccccc2=O)cc1,,inactive: 2.46%
O=C(Cn1nc(C(F)(F)F)c2c1CCCC2)NC1CCCC1,"inconclusive [activator, full curve]",
Cc1noc(C)c1-c1nccc(-n2ccnc2)n1,,inactive: -10.3%
Cc1cccc(OCC(=O)Nc2ccccc2N2CCN(C(=O)C(C)C)CC2)c1C,active: 1.58 µM,
O=C(NCCN1CCN(C(=O)c2cc3ccccc3oc2=O)CC1)c1cc2ccccc2oc1=O,"inconclusive [activator, single point]",
O=C(Nc1ccccc1)N1CCCC2(CCN(C(=O)c3csnn3)CC2)C1,"inconclusive [activator, single point]",

Compound,Potency,activation
O=C(NCc1ccco1)c1cc(-c2ccccn2)nc2ccccc12,"inconclusive [activator, single point]",
Clc1ccc(CSc2ncnc3c2ncn3[C@@H]2CCCCO2)cc1,"inconclusive [activator, single point]",
Cc1csc2ncc(C(=O)Nc3ccccc3Cl)c(=O)n12,"inconclusive [activator, single point]",
CCC(c1nnnn1Cc1ccco1)N(CCc1ccccc1)Cc1cc2ccc(OC)cc2[nH]c1=O (stereo not drawn),"inconclusive [activator, partial curve]",
CCCCSc1nnc([C@H](CC(C)C)NC(=O)OC(C)(C)C)o1,"inconclusive [activator, partial curve]",
Cc1cc(C(=O)Nc2nc3ccc(S(C)(=O)=O)cc3s2)c(C)o1,"inconclusive [activator, single point]",
O=C(CSc1nnc(SCc2ccc(Cl)cc2)s1)N1CCOCC1,"inconclusive [activator, single point]",
CCn1cc(C2=NOC(C(=O)Nc3ccc4c(c3)OCO4)C2)c(C)n1 (stereo not drawn),active: 1 µM,
O=C(c1ccncc1)N1CCC[C@@]2(CCN(c3ccncc3)C2)C1,"inconclusive [activator, single point]",
Cc1ccccc1Cn1cnc2c(cnn2C(C)(C)C)c1=O,"inconclusive [activator, partial curve]",
CCCC[C@@H]1C[C@H]1C(NS(=O)(=O)c1cccc2cccnc12)c1ccc(-c2ccccc2)cc1 (stereo partly drawn),,inactive: 4.28%
COc1ccc(C2C3=C(CC(c4ccco4)CC3=O)Nc3ccccc3N2C(C)=O)cc1 (stereo not drawn),,inactive: 7.43%
Cc1cc(OCC(=O)N2CCOCC2)ccc1NC(=O)C1CCCCC1,,inactive: -0.428%
Fc1ccccc1CSc1nnc(-c2cnccn2)n1Cc1ccco1,active: 25.1 µM,
Cc1cccc(N2CCN(C(=O)C3CCCN(S(=O)(=O)c4cccc5cccnc45)C3)CC2)c1C (stereo not drawn),"inconclusive [activator, single point]",
O=c1c2c([nH]c3ccccc13)C(=C1CCCC1)CC2,,inactive: -4.84%
Clc1ccccc1OCc1nc(-c2ccncc2)no1,,inactive: 12.2%
CCC/C=C(\CCC)C(NC(=O)c1ccccc1)c1ccccc1 (stereo not drawn),"inconclusive [activator, partial curve]",
COCCOC(=O)C1=C(C)NC2=C(C(=O)CC(C)(C)C2)C1c1ccc(N(C)C)cc1 (stereo not drawn),"inconclusive [activator, partial curve, poor fit]",
O=C(c1ccco1)N1CCN(C(=O)c2sccc2-c2ccccc2)CC1,"inconclusive [activator, single point]",
CN(Cc1ccco1)c1ncnc2ccc(-c3ccc4c(c3)OCO4)cc12,active: 15.8 µM,
Cc1ccc(C2CC(=O)c3cnc(N4CC(C)CC(C)C4)nc3C2)cc1 (stereo not drawn),"inconclusive [activator, partial curve]",
COc1cc(OC)cc(C(=O)Nc2cccc(N3CCCC3)c2)c1,,inactive: -8.35%
COc1ccc(COC(=O)N/N=C2/C[C@@H](O)[C@@H](O)[C@@H]3[C@@H]4C(=O)N(c5cccc(Oc6ccccc6)c5)C(=O)[C@H]4CC[C@@H]23)cc1,,inactive: -1.46% [at 11.4 µM]
c1ccc(OCCSc2nnnn2C2CCCCC2)cc1,active: 25.1 µM,

Compound,Potency,activation
CN(C)C(=O)/N=N\C(=O)N(C)C,"inconclusive [activator, full curve]",
O=c1cc(O)nc(SCc2ccccc2)[nH]1,"inconclusive [activator, single point]",
Fc1ccc(C2=Nn3c(Cc4ccccc4)nnc3SC2)cc1,,inactive: 27.5%
CC1(C)Cc2ccccc2C(=O)N1,,inactive: 6.49%
Cc1ccc(C)c(C(=O)COC(=O)c2ccc(Br)o2)c1,"inconclusive [activator, partial curve]",
Oc1ccc(Cc2cc(Cl)cc(Cl)c2O)cc1Cl,,inactive: -7.17% [at 11.4 µM]
CO[C@H]1COC(=O)[C@H](C)NC(=O)C/C=C\[C@@H](C)[C@H](OC)COC(=O)C/C=C\[C@@H]1C,,inactive: 1.14% [at 11.4 µM]
CCN(CC)c1ccc(C(NC(C)=O)NC(C)=O)cc1,,inactive: 8% [at 11.4 µM]
CCN1C(=O)[C@H]2[C@H]3[C@H](O)[C@H](O)C/C(=N/O[C@@H](C)c4cn([C@H](CO)Cc5ccccc5)nn4)[C@@H]3CC[C@@H]2C1=O,,inactive: -2.31% [at 11.4 µM] and inactive: -6.07% [at 11.4 µM]
Nc1ncnc2nn([C@H]3O[C@@H](CO)[C@@H](O)[C@H]3O)nc12,,inactive: 4.01% [at 11.4 µM]
COC(=O)C1=C(C)N(C)C(C)=C(C(=O)OC)C1c1ccc(F)c(Br)c1,active: 31.6 µM,
Cc1c(N=Cc2nc3ccccc3n2C)c(=O)n(-c2ccccc2)n1C,,inactive: 2.31%
CC1CCCN(S(=O)(=O)c2cc(Cl)ccc2Cl)C1 (stereo not drawn),"inconclusive [activator, single point]",
COc1ccccc1NC(=O)Nc1nc(-c2cccnc2)nc2ccccc12,,inactive: 11.8%
CC1CCc2sc3c(c2C1)c1ncnn1c(=O)n3CC(=O)c1ccc(Br)cc1 (stereo not drawn),active: 15.8 µM,
Cc1ccccc1-n1nc(C)c2cc(C(=O)N3CCOCC3)sc21,"inconclusive [activator, single point]",
O=C(CSc1nnc(C2CCCCC2)n1Cc1ccccc1)NCc1ccco1,active: 12.6 µM,
CCn1c(C2CC(=O)N(c3cc(C)cc(C)c3)C2)nc2ccccc21 (stereo not drawn),"inconclusive [activator, single point]",
CSCCC(Nc1ncnc2ccc(Br)cc12)C(=O)O (stereo not drawn),active: 2 µM,
CCOc1ccc(Cl)cc1S(=O)(=O)n1nnc2ccccc21,"inconclusive [activator, single point]",
COc1ccc2oc(=N)c(C(=O)Nc3ccccc3)cc2c1,,inactive: 19.7%
Cc1oc2cc3c(C(=O)N4CCN(C)CC4)c(C)oc3cc2c1C(=O)N1CCN(C)CC1,,inactive: 1.17%
COCc1nc2c([nH]1)c(=O)n(C)c(=O)n2CC(C)C,"inconclusive [activator, single point]",
